Assay results: the RNAGym collection of RNA variant scans (doi:10.1093/nar/gkz1192)
The source gives no read counts; variants with many changes may rest on few reads.

B1: CPEB3 Ribozyme (parent)
chain: UAACAGGGGGCCACAGCAGAAGCGUUCACGUCGCAGCCCCUGUCAGAUUCUGGUGAAUCUGCGAAUUCUGCUGUAUAUCUC

Variants of: B1
Assay: self-cleavage, relative activity (ratio to wild type); higher = more cleavage; in vitro, sequencing
Procedure, shortened: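 CPEB3 self-cleaving ribozyme mutant libraries were made by rounds of error-prone PCR, barcoded, and transcribed in vitro with T7 RNA polymerase for 5 hours at 37°C. Cleavage occurred during transcription and a 15 min DNase I step before EDTA stop. RNAs were reverse transcribed with template switching and Illumina-sequenced, with DNA sequencing mapping barcodes to variants. Relative activity is the variant's cleaved/total read fraction divided by wild type's (minimum 5 reads), averaged across three batches.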

| Variant | self-cleavage |
| --- | --- |
| UAAGAGGGGGCCACAGCAGAAGCGUUCACGUCGCAGCCCCUGCCAGAUUCUGGCGAAUCUGCGAAUUCUGCUGUAUGUCCC | 0.16 |
| UAAGAGGGGGCCACAGCAGAAGCGUUCACGUCGCAGCCCCUGCCAGAUUCUGGUGAAUCAGCGAAUUCUGCAGUACAUCUC | 0.16 |
| UAAGAGGGGGCCACAGCAGAAGCGUUCACGUCGCAGCCCCUGUCAGAUCCUGGUGAAUCUGCGAAUUCUGCUGUAUAUCAC | 0.63 |
| UAAUCGGGGGCCACUGCGGAAGCGUUCACGUCACAGCCCCUGUCAGAUUCUGGUGAGUCUGCGGAUUCUGCUGUAUAUCUC | 0.07 |
| UAAUCGGGGGCCACAGCAGAAGCGUUCACGUCGCAGCCCCUGUCAGAUUCUGGUGAAUCUGCGAAUUCUGCUGCAUAUAUC | 1.26 |
| UAAUGGGGGGCCGCAGCAGAUGCGUUCACGUCGCAGCCCCUGUCAGAUUCUGGAGUAUCUGCGAAUUCUGCUGUAUAUCUC | 0.23 |
| UAAUGGGGGGCCACAGCGGAAGCGUUCACGUCGCAGCCCCUGUCGGAUUCUGGUGGAGCUGCGAAAUCUGCUGUAUAUCUC | 0.32 |
| UAAUGGGGGGACACAGCAGAAGCGUUCACGUCGCAGCCCCUGUCAGAUCCUGGUGAAUCUGCGUAUUCCGCUGAAUAUCUC | 0 |
| UAAUGGGGGGCUACAGCAGAAGCGUUCACGUCGCAGCCCGUGUCAGAUUCUGGUGAAUCUGCGAAUUCUGCUGAAUAUCUC | 0.17 |
| UAAUGGGGGGCCACAGCAGAAGCGUUCACGCCGCAGCCCCUGUCAGAUUCUGGUGAAUCUGCGAAUUCUGCUGUAUAUCUC | 0.51 |
| UAAUUGGGGGCCACAGCAGAAGCGUACACGUCGCAGCCCCUGUCAGAUUCUGGUGAAUCUGCGAAUUCUGUUGUAUAUCUC | 0.98 |
| UAAUUGGGGGCCACAGCAGAAGCGUCCACGCCGCAGCCCCUGCCAGAUUCUGGUGAAUCUGCGAAUUCUGCUGUAUAUCUC | 0.26 |
| UAAUAGGGGGCCGCAGCAGAAGCGUUCACGUCGCAGCCCCUGUCAGAUUCUGGUGAAUCUGCGAAUUCCGCUGUAUAUCUC | 0.38 |
| UAAUAGGGGGCCUCUACAGAAGCGUUCACGUCGCAGCCCCUGUCAGAUUCUGGUGAAUCUGUGAAUUCAGCUGUAUAUCUC | 0.14 |
| UAAUAGGGGGCCUCAGCAGAAGCGUUCACGUCGCAGCCCAUGUCAGAUUCUGGUGAAUCUGCGAAUUCGGCAGUAUAUCUC | 0.07 |
| UAAUAGGGGGCCUCAGCAGAAGCGUUCACGUCGCAUCCCCUGUCAGAUUCUGGUGAAUCUGCGAAUUCUGCUGUAUAUCUC | 0.43 |
| UAAUAGGGGGCCACGGCAGAAGCGUUCACGUCGCAGCCCAAGUAGGAUUCUGGUGAAUCUGCGAAUUCUGCUGUAUAUCUC | 0.11 |
| UAAUAGGGGGCCACGGCAGAAGCGCUCACGUCGCAGCCCCUGUCAGAUUCUGGUGUAUCUGCGGACUCUGCUGUAUAUCUC | 0.27 |
| UAAUAGGGGGCCACGGCAGAAGCGCUCACGUUGCAGCCCCUGUCAGAUUCUGGUGAAUCUGCGUAUUCUGCUGUAUAUCAC | 0.16 |
| UAAUAGGGGGCCACGGCAGAAGCGUUCACGUCGCAGCCCCCGUCAGAUCCUGGUGAAUCCGCGAAUUCUGCUGUAUAUCUC | 0.17 |
| UAAUAGGGGGCCACUGCAGAAGCGCCCACGUCGCAGCCCCUGUCGGAUUCUGGUGAAUCUGCGAAUUCUGCUGUAUAUCCC | 0.11 |
| UAAUAGGGGGCCACUGCAGAAGCGUACACGUCGCAGCCCCUGUCAGAUUCUGGUGAAUCUGCGAAUUCUGCUGUGUAUCUC | 0.81 |
| UAAUAGGGGGCCACAGCGGAAGCGUUCGCGUCGCAGCCCCUGUCAGAUUCUGGUGAAUCUGCGAAUUCUGCUGUAUAACUC | 0.56 |

| Variant | self-cleavage |
| --- | --- |
| UAAUAGGGGGCCACAGCGGAAGCGUUCACGUCGCAGCCCCUGCCAGAUUCUGGUGAAUCUGCGAAUUCUGCUGUAUAUCUC | 0.54 |
| UAAUAGGGGGCCACAGCGGAAGCGUUCACGUCGCAGCCCCUGUCAGAUCCUGGUGAAUCUGCGAAUUCUGCUGUAUAUCUC | 0.26 |
| UAAUAGGGGGCCACAGCUGAGGCGUUCACGUCGCAGCCCCUGUCAGAUUCUGGUGAAUCUGCGAAUUCUGCUGUAUAUCUC | 0.15 |
| UAAUAGGGGGCCACAGCAGGAGCGUUCACGUCGCGGCCCCUGUCGGAUUCUGGUGAAUCUGCGAAUUCAGCUGUAUAUCUC | 0.63 |
| UAAUAGGGGGCCACAGCAGGAGCGUUCACGUCGCAGCCCCUGUCAGAUUCUGGUGAAUCUGCGAAUUCUGCUGUAUAUCUA | 1.19 |
| UAAUAGGGGGCCACAGCAGGAGCGUUCACGCCGCAGCCCCUGUCAGAUCCUGGUGAAUCUGCGAAUUCUGCUGAAUAUCUC | 0.29 |
| UAAUAGGGGGCCACAGCAGGAGCGUUCACGUCGCAGCCCCUGUCAGAUUCUGGCGAAUCUGCGAAUUCUGCUGUAUAUCUC | 0.83 |
| UAAUAGGGGGCCACAGCAGUAGCGUUCACGUCGCAGCCCCUGUCAGAUUCUGGUGAGUCUGCGAAUCCUGCUGUAUAUCUC | 0.17 |
| UAAUAGGGGGCCACAGCAGUAGCGUUCACGUCGCAGCCCCUGUUAGAUUCUGGUGAAUCCGCGAAUUCUGCCGUAUACCUC | 0.06 |
| UAAUAGGGGGCCACAGCAGUAGCGUACUCGUCGCAGCCCCUGUCAGAUUCUGGUGAAUCUGCGAAUCCUGCUGUAUAUCUC | 0.15 |
| UAAUAGGGGGCCACAGCAGUAGCGUCCACGUCGCAGCCCCUGUCAGAUUCUGGUGAAUCUGCGGAUUCCGCUGUAUAUCUC | 0.2 |
| UAAUAGGGGGCCACAGCAGUAGCGUUCACGUCGCAGCCCCUGUCAGAUUCUGGUGAAUCUGCGAAUUCUGCUGAAUAUCCC | 0.75 |
| UAAUAGGGGGCCACAGCAGUAGCGUUCACGUCGCAGCCCCUGUCAGAUUCUGGUGAAUCUGCGAAUUCUGCUGUAUAUCCC | 0.69 |
| UAAUAGGGGGCCACAGCAGACGCGUUCACGUCGCAGCCCCAGUCAAGUUCUGGUGAAUCUGCGAAUUCUGCUGUAUGUCUC | 0.03 |
| UAAUAGGGGGCCACAGCAGACGCGUUCACGUCGCAGCCCCUGUCAGACUCUGGUGAAUCUGCGAAUUCUGCAGUACAUCUC | 0.17 |
| UAAUAGGGGGCCACAGCAGACGCGUUCACGUCGCAGCCCCUGUCAGAUUCAGGUGAAUCAGCGAAUUCUGCUGCAUAUCUC | 0.12 |
| UAAUAGGGGGCCACAGCAGAGGUGUUCACGUCGCUGCCCCUGUCAGAUUCUGGUGAAUCUGCGAAUUCUGCUGUUUAUCUC | 0.21 |
| UAAUAGGGGGCCACAGCAGAGGCGUUAGCGUCGCAGCCCCAGUCAGAUUCUGGUGAAUCUGCGAAUUCUGCAGUAUAACUC | 0.06 |
| UAAUAGGGGGCCACAGCAGAGGCGUUCACACCGCAGCCCCUGUCAGAUUCUGGUGUAUCUGCGAAUUCUGCUGUAUAUCUC | 0.12 |
| UAAUAGGGGGCCACAGCAGAGGCGUCCACGUCGCAGCCCCUGUCAGAUUCCGGUGAAUCCGCGAAUUCUGCUGUAUAUCUC | 0.21 |
| UAAUAGGGGGCCACAGCAGAGGCGUUCACGUCGCAGCCCCUGUCAGAUUCUGGUGAACCUGCGAAUUCUGCUGUAUAUCUC | 0.69 |
| UAAUAGGGGGCCACAGCAGAAGCGUUCCCCUCGCAGCCCCUGUCAGAUUCUGGUGAGUCCGCGAAUUCUGCUGUAUAUCUC | 0.15 |
| UAAUAGGGGGCCACAGCAGAAGCGUUCGCGUCGCAGCCCCUGUCAGAUUCUGGUGAAUCUGCGGAUUCUGCUGUAUAUCUC | 0.96 |

| Variant | self-cleavage |
| --- | --- |
| UAAUAGGGGGCCACAGCAGAAGCGUUCGAGUCGCAGCCCCCGUCAGAUUCUGGUGAAUCUGCGAAUUCUGUUGUAUAUCUC | 0.23 |
| UAAUAGGGGGCCACAGCAGAAGCGUUCGCGACGCAGCCCCAGUCAGAUCCCGGUGAAUCUGCGAAUUCUGCUGUAUAUCUC | 0.26 |
| UAAUAGGGGGCCACAGCAGAAGCGUUCACGUCGCUGCCCCUGUCAGAUUCUGGUGGAUCUGCGAAUUCUGCUGUAUAUCUC | 0.63 |
| UAAUAGGGGGCCACAGCAGAAGCGUUCACGUCGCAGCCCCUGUCCGAUUCUGGUGGAUCUGCGGAUUCUGCUGUAUAUCUC | 0.14 |
| UAAUAGGGGGCCACAGCAGAAGCGUUCACGUCGCAGCCCCUGUCGGAUGCUGGCGAAUCUGCGAAUUCUGCUGUAUAUCUC | 0.23 |
| UAAUAGGGGGCCACAGCAGAAGCGUUCACGUCGCAGCCCCUGUCUGAUUCUGGUGGAUCUGCGAAUCCUGCUGUAUAUCUC | 0.37 |
| UAAUAGGGGGCCACAGCAGAAGCGUUCACGUCGCAGCCCCUGUCUGAUUCUGGUGAAUCUGCGAGUUCUGCUGUAUAUCUC | 0.39 |
| UAAUAGGGGGCCACAGCAGAAGCGUUCACGUCGCAGCCCCUGUCAGGUUCUGGUGAGUCUGCGAAUUCUGCUGAGUAUCUC | 1.11 |
| UAAUAGGGGGCCACAGCAGAAGCGUUCACGUCGCAGCCCCUGUCAGGUUCUGGUGAAUCUGCGUAUUCUGCUGUAUAUCAC | 0.51 |
| UAAUAGGGGGCCACAGCAGAAGCGUUCACGUCGCAGCCCCUGUCAGAUUCUGGUGGAACUGCGAAUUCUGCUGUAUAUCUC | 0.48 |
| UAAUAGGGGGACGCAGCGGAAGCGUCCACGUCGCAGCCCCUGUCAGAUUCUGGUGAAUCUGCGAACUCUGCUGUAUAUCUC | 0.04 |
| UAAUAGGGGGGCACAGCAGAAGCGUUCACGUCGCAGCGCCUGUCAGAUUCUGGUGAAUCUGCGAACUCUGCUGUAUAUCUC | 0.05 |
| UAAUAGGGGGUCACAGCAGGAGCGCUCACGUCGCAGCCCCUGUCAGAUUCUGGUGUAUCUGCGAAUUCUGCAGUAUAUCUC | 0.06 |
| UAAUAGGGGGUCACAGCAGAAGCGUACACGUCGCAGCCCCUGCCAGACUCUGGUGAAUCUGCGAAUUCUGCUGUAUAUCUC | 0.08 |
| UAAUAGGGGGCUACAGCAGAAGCGUUCACGUCGCCGCCCCUGUCAGAUUCUGGUGAAUCUGCGAAUUCUGCUGUAAAUCUC | 1.16 |
| UAAUAGGGGGCCAUAGCAGAGGCGUUCACGUCGCAGCCCCUGUCAGAUACUGGUGAGUCUGCGAAUUCUGCUGUAUAACUC | 0.15 |
| UAAUAGGGGGCCACAGCAGAAGGGCUCACGUAGCAGCCCAUGUCAGAUUCUGGUGAAUCUGCGAAUUCUGCUGUGUAUCUC | 0.06 |
| UAAUAGGGGGCCACAGCAGAAGGGCCCACGUCGCAGCCCCUGUCAGAUUCUGGUGAAUCUGCGAACUCUGCUGUAUACCUC | 0.1 |
| UAAUAGGGGGCCACAGCAGAAGCGUUCACGUCGCAGUCCCUGACAGAUUCUGGUGAAUCUGCGAAUCCUGCAGUAUAUCUC | 0.3 |
| UAAUAGGGGGCCACAGCAGAAGCGUUCACGUCGCAGCCCUUGUCAGAUUCUGGUGAGUCUGCGAAUUCUGCUGUAUAUCUC | 0.56 |
| UAAUAGGGGGCCACAGCAGAAGCGUUCACGUCGCAGCCCCUGUUAGAUUCUGGUGAAUCCGCGGAUUCUGCUGUAUAUCUC | 0.17 |
| UAAUACGGGGCCACAGCAGAAGCGUUCACGCCGCGGCCCCUGUCAGAUUCUGGAGAAUCUGCGAAUUCUGCUGUAUAUCUC | 0.32 |
